Assay results from paper PMC3997423, “Identification and HLA-Tetramer-Validation of Human CD4^+ and CD8^+ T Cell Responses against HCMV Proteins IE1 and IE2” (PLoS ONE, 2014).

Target: T1, HLA-C*07:02 (Homo sapiens, UniProt P10321)
T1 construct: made in house
Assay: Peptide-HLA class I stability
Assay type: binding
Conditions: dissociation of ^125I β2m, scintillation proximity assay, 37°C, read 24 h

## CRVLCCYVL [IE1_309–317]
  Stability (T½; h): 12.6 h
